# Laboratory results: a collection of fitness landscapes (doi:10.1126/science.1257360)
# This is one part of the list.
# B1: PhoQ; a variant is named by its letters at X, in order, P23837 (parent)
# chain: MKKLLRLFFPLSLRVRFLLATAAVVLVLSLAYGMVALIGYSVSFDKTTFRLLRGESNLFYTLAKWENNKLHVELPENIDKQSPTMTLIYDENGQLLWAQRDVPWLMKMIQPDWLKSNGFHEIEADVNDTSLLLSGDHSIQQQLQEVREDDDDAEMTHSVAVNVYPATSRMPKLTIVVVDTIPVELKSSYMVWSWFIYVLSANLLLVIPLLWVAAWWSLRPIEALAKEVRELEEHNRELLNPATTRELTSLVRNLNRLLKSERERYDKYRTTLTDLTHSLKTPLXXLQXXLRSLRSEKMSVSDAEPVMLEQISRISQQIGYYLHRASMRGGTLLSRELHPVAPLLDNLTSALNKVYQRKGVNISLDISPEISFVGEQNDFVEVMGNVLDNACKYCLEFVEISARQTDEHLYIVVEDDGPGIPLSKREVIFDRGQRVDTLRPGQGVGLAVAREITEQYEGKIVAGESMLGGARMEVIFGRQHSAPKDE
# Variants of: B1
# Test: enrichment ratio after two sorts for PhoP signalling (ratio (wild type AVST 3.29)); higher = more functional
# Settings: with PhoP (E. coli)
row,Variant,enrichment ratio
1,TDLK,1.35
2,TYRP,≤ 0.25
3,DDRI,≤ 0.25
4,PFHE,≤ 0.25
5,YSRK,≤ 0.25
6,SETG,9.95
7,RFDK,≤ 0.25
8,WDIE,≤ 0.25
9,QTWA,≤ 0.25
10,ATEH,≤ 0.25
11,YDGM,≤ 0.25
12,EIMD,≤ 0.25
13,YCDL,≤ 0.25
14,IKRG,≤ 0.25
15,FHNT,≤ 0.25
16,IYQM,≤ 0.25
17,DTVD,≤ 0.25
18,ECGF,≤ 0.25
19,GNVL,10.9
20,LMYC,≤ 0.25
21,PWLV,≤ 0.25
22,YVKK,≤ 0.25
23,KPVS,≤ 0.25
24,RCER,≤ 0.25

row,Variant,enrichment ratio
1,MAAI,≤ 0.25
2,VKGL,≤ 0.25
3,ILNT,≤ 0.25
4,WTYL,≤ 0.25
5,LHWP,≤ 0.25
6,WSEV,≤ 0.25
7,FPVR,≤ 0.25
8,TIAN,19.6
9,TFTE,≤ 0.25
10,VIFF,≤ 0.25
11,MHQA,≤ 0.25
12,NYIG,≤ 0.25
13,ADDK,≤ 0.25
14,MPSE,≤ 0.25
15,EKIT,≤ 0.25
16,KSTA,≤ 0.25
17,DMQS,≤ 0.25
18,TQCT,12.5
19,WDMM,≤ 0.25
20,DHKM,≤ 0.25
21,LFEA,≤ 0.25
22,ACAA,6.58
23,MAIT,≤ 0.25
24,GQTF,≤ 0.25

row,Variant,enrichment ratio
1,SHSQ,≤ 0.25
2,KCHL,≤ 0.25
3,TGLV,12.3
4,FPKM,≤ 0.25
5,NLSQ,≤ 0.25
6,DKTK,≤ 0.25
7,FACC,≤ 0.25
8,PLGD,≤ 0.25
9,VKIR,≤ 0.25
10,APRI,≤ 0.25
11,MQLC,1.67
12,QSPF,≤ 0.25
13,PCRV,≤ 0.25
14,EVQN,≤ 0.25
15,HDAL,≤ 0.25
16,EFYQ,≤ 0.25
17,SNFR,≤ 0.25
18,VAKI,≤ 0.25
19,SYVS,≤ 0.25
20,MTGW,≤ 0.25
21,KAAG,≤ 0.25
22,MDGW,≤ 0.25
23,RFHS,≤ 0.25
24,FVPK,≤ 0.25

row,Variant,enrichment ratio
1,TGHV,16.1
2,VMQT,≤ 0.25
3,RTTT,≤ 0.25
4,TPYM,≤ 0.25
5,FIDL,≤ 0.25
6,YTCS,≤ 0.25
7,AILL,4.86
8,PNTV,≤ 0.25
9,EPMY,≤ 0.25
10,ALRM,≤ 0.25
11,GMLH,≤ 0.25
12,LCHR,≤ 0.25
13,QYCW,≤ 0.25
14,WVKW,≤ 0.25
15,RLLF,≤ 0.25
16,WEAS,≤ 0.25
17,AADR,≤ 0.25
18,FCVV,≤ 0.25
19,VKKT,≤ 0.25
20,ISTP,≤ 0.25
21,FTVI,≤ 0.25
22,TSAK,≤ 0.25
23,TAVP,≤ 0.25
24,NIAG,≤ 0.25

row,Variant,enrichment ratio
1,QGCQ,≤ 0.25
2,LWFW,≤ 0.25
3,PKYF,≤ 0.25
4,AQTV,7.08
5,TAGL,12.4
6,YYQP,≤ 0.25
7,PHSN,≤ 0.25
8,NGYH,≤ 0.25
9,RERS,≤ 0.25
10,ISYA,≤ 0.25
11,YDWN,≤ 0.25
12,NYPP,≤ 0.25
13,RPLF,≤ 0.25
14,HFCM,1.37
15,EHVT,≤ 0.25
16,SFKT,≤ 0.25
17,YGEY,≤ 0.25
18,PFNT,≤ 0.25
19,GFGD,≤ 0.25
20,ESLG,≤ 0.25
21,LQCS,≤ 0.25
22,ILQC,≤ 0.25
23,DHPH,≤ 0.25
24,QWCI,≤ 0.25

row,Variant,enrichment ratio
1,TWMM,≤ 0.25
2,YFIQ,≤ 0.25
3,IMAI,≤ 0.25
4,TSND,2.63
5,VNKI,≤ 0.25
6,RNPQ,≤ 0.25
7,SMCN,4.13
8,KFFE,≤ 0.25
9,SYEM,≤ 0.25
10,VEGT,≤ 0.25
11,TERM,≤ 0.25
12,PGPV,≤ 0.25
13,NWKA,≤ 0.25
14,QCNK,≤ 0.25
15,GIPI,≤ 0.25
16,THHC,≤ 0.25
17,MKHI,≤ 0.25
18,EHSD,≤ 0.25
19,SKRA,≤ 0.25
20,VDNH,≤ 0.25
21,NTHN,≤ 0.25
22,MRYA,≤ 0.25
23,ILMF,≤ 0.25
24,RLLG,≤ 0.25

row,Variant,enrichment ratio
1,VDQM,≤ 0.25
2,GFGK,≤ 0.25
3,PEGQ,≤ 0.25
4,EENN,≤ 0.25
5,GIIS,1.55
6,NRMG,≤ 0.25
7,DMDM,≤ 0.25
8,AGCI,14
9,FNCV,≤ 0.25
10,VPHS,≤ 0.25
11,PQCD,≤ 0.25
12,TSCQ,21.3
13,RSFT,≤ 0.25
14,PLTI,≤ 0.25
15,PQLK,≤ 0.25
16,TPLS,≤ 0.25
17,RRLR,≤ 0.25
18,VMEG,≤ 0.25
19,HHYN,≤ 0.25
20,SWGP,≤ 0.25
21,VPPW,≤ 0.25
22,IEWE,≤ 0.25
23,VKDR,≤ 0.25
24,PAGV,≤ 0.25

row,Variant,enrichment ratio
1,PCRH,≤ 0.25
2,NFDP,≤ 0.25
3,IGNS,≤ 0.25
4,AKTK,≤ 0.25
5,FLVF,≤ 0.25
6,DYPM,≤ 0.25
7,HKCG,≤ 0.25
8,HSKA,≤ 0.25
9,RAYA,≤ 0.25
10,AGFM,2.22
11,TIMW,≤ 0.25
12,DVLM,≤ 0.25
13,PSII,≤ 0.25
14,WAMG,≤ 0.25
15,KPLF,≤ 0.25
16,VMPF,≤ 0.25
17,IHEI,≤ 0.25
18,SARQ,≤ 0.25
19,DGTM,≤ 0.25
20,LLCA,≤ 0.25
21,HWTP,≤ 0.25
22,DTFP,≤ 0.25
23,RCLW,≤ 0.25
24,ESLI,0.353

row,Variant,enrichment ratio
1,PNIY,≤ 0.25
2,QPFD,≤ 0.25
3,VHNY,≤ 0.25
4,VERK,≤ 0.25
5,FQVH,≤ 0.25
6,PNSY,≤ 0.25
7,SPHA,≤ 0.25
8,KGES,≤ 0.25
9,QIHL,9.08
10,LATP,≤ 0.25
11,TCCW,≤ 0.25
12,NRKW,≤ 0.25
13,WGMR,≤ 0.25
14,NDRE,≤ 0.25
15,HDCK,≤ 0.25
16,EWFV,≤ 0.25
17,GLNS,≤ 0.25
18,CFFV,≤ 0.25
19,TDFC,≤ 0.25
20,ISHA,≤ 0.25
21,IYQW,≤ 0.25
22,GEQS,≤ 0.25
23,KCYG,≤ 0.25
24,STYY,≤ 0.25

row,Variant,enrichment ratio
1,KMSP,≤ 0.25
2,WSQI,≤ 0.25
3,SKGH,1.69
4,FELY,≤ 0.25
5,VNYA,≤ 0.25
6,QCYF,≤ 0.25
7,DFQT,≤ 0.25
8,WYKC,≤ 0.25
9,ARFW,≤ 0.25
10,YNVK,≤ 0.25
11,RVWW,≤ 0.25
12,TFDL,≤ 0.25
13,WDPC,≤ 0.25
14,MDLT,≤ 0.25
15,HHLR,≤ 0.25
16,SEHL,≤ 0.25
17,EEPR,≤ 0.25
18,PSVG,≤ 0.25
19,RCKN,≤ 0.25
20,QHFS,≤ 0.25
21,EADE,≤ 0.25
22,LKEH,≤ 0.25
23,KFFS,≤ 0.25
24,FGYK,≤ 0.25

row,Variant,enrichment ratio
1,FHRD,≤ 0.25
2,DCKP,≤ 0.25
3,SHYL,≤ 0.25
4,FDQH,≤ 0.25
5,ACHK,≤ 0.25
6,WEVN,≤ 0.25
7,IGFW,≤ 0.25
8,ERGR,≤ 0.25
9,KRGP,≤ 0.25
10,EIFN,≤ 0.25
11,GAKH,≤ 0.25
12,IDQK,≤ 0.25
13,TCVH,1.81
14,PWKH,≤ 0.25
15,VTRP,≤ 0.25
16,MPWN,≤ 0.25
17,VHGS,≤ 0.25
18,AISH,6.86
19,FTTS,≤ 0.25
20,APCG,≤ 0.25
21,EHCN,≤ 0.25
22,FFDC,≤ 0.25
23,MYWF,≤ 0.25
24,MTVQ,≤ 0.25

row,Variant,enrichment ratio
1,MYFC,≤ 0.25
2,YYAH,≤ 0.25
3,IQQF,≤ 0.25
4,ERRY,≤ 0.25
5,RCFQ,≤ 0.25
6,FGLE,9.52
7,FVCF,12
8,GSLD,≤ 0.25
9,MGIL,6.12
10,RAVG,1.75
11,NCCL,≤ 0.25
12,VQDE,≤ 0.25
13,DCSG,≤ 0.25
14,NTQF,≤ 0.25
15,AKFV,≤ 0.25
16,FYES,≤ 0.25
17,TYTR,0.743
18,GRNM,≤ 0.25
19,LGCW,≤ 0.25
20,QYIS,≤ 0.25
21,SVCP,≤ 0.25
22,PGDP,≤ 0.25
23,HHQN,≤ 0.25
24,RKSF,≤ 0.25

row,Variant,enrichment ratio
1,THPV,≤ 0.25
2,ELLM,≤ 0.25
3,LTWD,≤ 0.25
4,TANY,6.49
5,VPAF,≤ 0.25
6,TSYV,6.72
7,ISIV,≤ 0.25
8,EQCQ,≤ 0.25
9,HQEV,≤ 0.25
10,RMDY,≤ 0.25
11,RCPN,≤ 0.25
12,RIGA,≤ 0.25
13,HCIP,≤ 0.25
14,WQWL,≤ 0.25
15,AWLI,≤ 0.25
16,IRAV,≤ 0.25
17,ACYK,≤ 0.25
18,MRVT,≤ 0.25
